According to the supplement of paper PMC8728848:
This is one part of the list.

Assays:
Assay in all cases: glycan array binding signal (z-score within array); higher = stronger binding
Settings in all cases: glycan notation: IUPAC condensed, linker removed
[1] = target: Gal(a1-4)Gal(b1-4)GlcNAc(b1-2)Man(a1-3)[Gal(a1-4)Gal(b1-4)GlcNAc(b1-2)Man(a1-6)]Man(b1-4)GlcNAc(b1-4)GlcNAc
How it was run: (§1)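 The binding signal is a Z-score computed within each array and averaged over linkers. Arrays of the same protein sequence at different concentrations or buffers were also averaged together. Data originate from 3228 arrays in the Consortium for Functional Glycomics database, kept only where the protein sequence was available.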

[2] = target: Gal(a1-4)Gal(b1-4)GlcNAc(b1-3)Gal(b1-4)Glc
How it was run: as §1

Gal(a1-4)GlcNAc = target: Gal(a1-4)GlcNAc
How it was run: as §1

Gal(a1-6)Glc = target: Gal(a1-6)Glc
How it was run: as §1

Gal(b1-2)Gal = target: Gal(b1-2)Gal
How it was run: as §1

Gal(b1-3)Gal = target: Gal(b1-3)Gal
How it was run: as §1

Gal(b1-3)Gal(b1-4)GlcNAc = target: Gal(b1-3)Gal(b1-4)GlcNAc
How it was run: as §1

[3] = target: Gal(b1-3)Gal(b1-4)GlcNAc(b1-2)Man(a1-3)[Gal(b1-3)Gal(b1-4)GlcNAc(b1-2)Man(a1-6)]Man(b1-4)GlcNAc(b1-4)GlcNAc
How it was run: as §1

Gal(b1-3)GalNAc = target: Gal(b1-3)GalNAc
How it was run: as §1

[4] = target: Gal(b1-3)GalNAc(a1-3)[Fuc(a1-2)]Gal(b1-4)Glc
How it was run: as §1

[5] = target: Gal(b1-3)GalNAc(a1-3)[Fuc(a1-2)]Gal(b1-4)GlcNAc
How it was run: as §1

Gal(b1-3)GalNAc(b1-3)Gal = target: Gal(b1-3)GalNAc(b1-3)Gal
How it was run: as §1

[6] = target: Gal(b1-3)GalNAc(b1-3)Gal(a1-4)Gal(b1-4)Glc
How it was run: as §1

[7] = target: Gal(b1-3)GalNAc(b1-4)Gal(b1-4)Glc
How it was run: as §1

[8] = target: Gal(b1-3)GalNAc(b1-4)[Neu5Ac(a2-3)]Gal(b1-4)Glc
How it was run: as §1

Gal(b1-3)GlcNAc = target: Gal(b1-3)GlcNAc
How it was run: as §1

[9] = target: Gal(b1-3)GlcNAc(a1-3)Gal(b1-4)GlcNAc
How it was run: as §1

[10] = target: Gal(b1-3)GlcNAc(a1-6)Gal(b1-4)GlcNAc
How it was run: as §1

Gal(b1-3)GlcNAc(b1-2)Man = target: Gal(b1-3)GlcNAc(b1-2)Man
How it was run: as §1

[11] = target: Gal(b1-3)GlcNAc(b1-2)Man(a1-3)[Gal(b1-3)GlcNAc(b1-2)Man(a1-6)]Man(b1-4)GlcNAc(b1-4)GlcNAc
How it was run: as §1

[12] = target: Gal(b1-3)GlcNAc(b1-2)Man(a1-3)[Gal(b1-3)GlcNAc(b1-2)Man(a1-6)]Man(b1-4)GlcNAc(b1-4)[Fuc(a1-6)]GlcNAc
How it was run: as §1

[13] = target: Gal(b1-3)GlcNAc(b1-2)Man(a1-3)[GlcNAc(b1-4)][Gal(b1-3)GlcNAc(b1-2)Man(a1-6)]Man(b1-4)GlcNAc(b1-4)GlcNAc
How it was run: as §1

[14] = target: Gal(b1-3)GlcNAc(b1-2)[Gal(b1-3)GlcNAc(b1-6)]Man(a1-6)[Gal(b1-3)GlcNAc(b1-2)Man(a1-3)]Man(b1-4)GlcNAc(b1-4)GlcNAc
How it was run: as §1

[15] = target: Gal(b1-3)GlcNAc(b1-3)Gal(b1-3)GlcNAc
How it was run: as §1

[16] = target: Gal(b1-3)GlcNAc(b1-3)Gal(b1-4)Glc
How it was run: as §1

[17] = target: Gal(b1-3)GlcNAc(b1-3)Gal(b1-4)GlcNAc
How it was run: as §1

[18] = target: Gal(b1-3)GlcNAc(b1-3)Gal(b1-4)GlcNAc(b1-2)Man(a1-3)[Gal(b1-3)GlcNAc(b1-3)Gal(b1-4)GlcNAc(b1-2)Man(a1-6)]Man(b1-4)GlcNAc(b1-4)GlcNAc
How it was run: as §1

[19] = target: Gal(b1-3)GlcNAc(b1-3)Gal(b1-4)GlcNAc(b1-2)[Gal(b1-3)GlcNAc(b1-3)Gal(b1-4)GlcNAc(b1-6)]Man(a1-6)[Gal(b1-3)GlcNAc(b1-3)Gal(b1-4)GlcNAc(b1-2)Man(a1-3)]Man(b1-4)GlcNAc(b1-4)[Fuc(a1-6)]GlcNAc
How it was run: as §1

[20] = target: Gal(b1-3)GlcNAc(b1-3)Gal(b1-4)GlcNAc(b1-3)Gal(b1-4)GlcNAc(b1-2)[Gal(b1-3)GlcNAc(b1-3)Gal(b1-4)GlcNAc(b1-3)Gal(b1-4)GlcNAc(b1-6)]Man(a1-6)[Gal(b1-3)GlcNAc(b1-3)Gal(b1-4)GlcNAc(b1-3)Gal(b1-4)GlcNAc(b1-2)Man(a1-3)]Man(b1-4)GlcNAc(b1-4)[Fuc(a1-6)]GlcNAc
How it was run: as §1

[21] = target: Gal(b1-3)GlcNAc(b1-3)Gal(b1-4)GlcNAc(b1-6)[Gal(b1-3)GlcNAc(b1-3)]Gal(b1-4)Glc
How it was run: as §1

[22] = target: Gal(b1-3)GlcNAc(b1-3)Gal(b1-4)[Fuc(a1-3)]GlcNAc(b1-6)[Gal(b1-3)GlcNAc(b1-3)]Gal(b1-4)Glc
How it was run: as §1

[23] = target: Gal(b1-3)GlcNAc(b1-3)GalNAc
How it was run: as §1

[24] = target: Gal(b1-3)GlcNAc(b1-6)Gal(b1-4)GlcNAc
How it was run: as §1

[25] = target: Gal(b1-3)GlcNAc(b1-6)GalNAc
How it was run: as §1

[26] = target: Gal(b1-3)GlcNAc(b1-6)[Gal(b1-3)]GalNAc
How it was run: as §1

Gal(b1-3)GlcNAc6S = target: Gal(b1-3)GlcNAc6S
How it was run: as §1

[27] = target: Gal(b1-3)[Fuc(a1-4)]GlcNAc
How it was run: as §1

B1: Gal 4 (Mus musculus), P56470 (protein)
chain: MAYVPAPGYQPTYNPTLPYYQPIPGGLNVGMSVYIQGVASEHMKRFFVNFVVGQDPGSDVAFHFNPRFDGWDKVVFNTLQGGKWGSEERKRSMPFKKGAAFELVFIVLAEHYKVVVNGNPFYEYGHRLPLQMVTHLQVDGDLQLQSINFIGGQPLRPQGPPMMPPYPGPGHCHQQLNSLPTMEGPPTFNPPVPYFGRLQGGLTARRTIIIKGYVPPTGKSFAINFKVGSSGDIALHINPRMGNGTVVRNSLLNGSWGSEEKKITHNPFGPGQFFDLSIRCGLDRFKVYANGQHLFDFAHRLSAFQRVDTLEIQGDVTLSYVQI
For B1, the “glycan array binding signal (z-score)” value [1] was -0.229, the “glycan array binding signal (z-score)” value [2] was 0.328 and the “glycan array binding signal (z-score)” value (Gal(a1-4)GlcNAc) was -0.243. The “glycan array binding signal (z-score)” value (Gal(a1-6)Glc) was -0.242, the “glycan array binding signal (z-score)” value (Gal(b1-2)Gal) was -0.235 and the “glycan array binding signal (z-score)” value (Gal(b1-3)Gal) was -0.129. The “glycan array binding signal (z-score)” value (Gal(b1-3)Gal(b1-4)GlcNAc) was 0.038, the “glycan array binding signal (z-score)” value [3] was 0.271 and the “glycan array binding signal (z-score)” value (Gal(b1-3)GalNAc) was -0.204. For the same binder, the “glycan array binding signal (z-score)” value [4] was 4.95, the “glycan array binding signal (z-score)” value [5] was 3.84 and the “glycan array binding signal (z-score)” value (Gal(b1-3)GalNAc(b1-3)Gal) was 1.06. For the same binder, the “glycan array binding signal (z-score)” value [6] was -0.219, the “glycan array binding signal (z-score)” value [7] was 0.059 and the “glycan array binding signal (z-score)” value [8] was -0.169. The “glycan array binding signal (z-score)” value (Gal(b1-3)GlcNAc) was -0.228, the “glycan array binding signal (z-score)” value [9] was -0.242 and the “glycan array binding signal (z-score)” value [10] was -0.236. The “glycan array binding signal (z-score)” value (Gal(b1-3)GlcNAc(b1-2)Man) was -0.334, the “glycan array binding signal (z-score)” value [11] was -0.181 and the “glycan array binding signal (z-score)” value [12] was -0.188. The “glycan array binding signal (z-score)” value [13] was -0.308, the “glycan array binding signal (z-score)” value [14] was -0.173 and the “glycan array binding signal (z-score)” value [15] was 0.346. The “glycan array binding signal (z-score)” value [16] was 0.159, the “glycan array binding signal (z-score)” value [17] was -0.148 and the “glycan array binding signal (z-score)” value [18] was -0.204. For the same binder, the “glycan array binding signal (z-score)” value [19] was -0.277, the “glycan array binding signal (z-score)” value [20] was -0.2 and the “glycan array binding signal (z-score)” value [21] was -0.135. The “glycan array binding signal (z-score)” value [22] was -0.161, the “glycan array binding signal (z-score)” value [23] was -0.241 and the “glycan array binding signal (z-score)” value [24] was -0.211. The “glycan array binding signal (z-score)” value [25] was -0.316, the “glycan array binding signal (z-score)” value [26] was -0.307 and the “glycan array binding signal (z-score)” value (Gal(b1-3)GlcNAc6S) was 3.23. The “glycan array binding signal (z-score)” value [27] was -0.213.
